Among all 50,000 compounds or so, about 800 (1.6%) showed an effect of 50% or more. This is one part of the list.

Drawing on PubChem BioAssay AID1240 (Sanford-Burnham Center for Chemical Genomics, 2008), this text covers displacement for 113 compounds.

The target of this assay is Bcl-2-like protein 10 (Homo sapiens) (UniProt Q9HD36). Nature of the assay: TR3 peptide-Bcl-B binding displacers, biochemical primary FP assay, phenotype converters (AID 1240).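 Also: 0% = Bcl-B with tracer peptide and DMSO and 100% = tracer peptide lacking Bcl-B.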 The following applies: GST-Bcl-B / FITC-TR3 peptide fluorescence polarization; stronger effect = higher value; compound at 3.75 mg/L.
Chain of UniProt Q9HD36 (Q9HD36 whole entry, looked up): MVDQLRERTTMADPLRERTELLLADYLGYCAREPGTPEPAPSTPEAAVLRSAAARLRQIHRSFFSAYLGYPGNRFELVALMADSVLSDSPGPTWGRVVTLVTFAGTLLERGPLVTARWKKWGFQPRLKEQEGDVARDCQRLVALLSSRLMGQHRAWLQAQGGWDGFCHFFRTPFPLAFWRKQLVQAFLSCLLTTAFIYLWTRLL
On to `COCCOC(=O)c1ccc(NC(=O)C(C)Oc2ccc(Cl)cc2C)cc1` (stereo not drawn), for which the displacement is -17.3%. The result for `COc1ccccc1NC(=O)c1ccc(CN(c2ccc(C)c(C)c2)S(C)(=O)=O)cc1` reads 4.5%; that for `O=C1OC(c2ccccc2)=N/C1=C/c1c(F)c(F)c(F)c(F)c1F`, -3.5%. The result for `O=C(O)CSc1ccc(I)cc1C(=O)O` reads -5.7%; that for `O=c1oc(-c2ccccc2Cl)nc2c1cnn2-c1ccccc1`, 3.1%; that for `COc1cccc(/C=C2\SC(N3CCCC3)=NC2=O)c1`, -2.9%. For the compound `COc1cccc(C2NC(=O)NC(C)=C2C(=O)OCCSC)c1OC` (stereo not drawn), the displacement stood at 8.4%.

In the case of `O=C(/C=C(\O)c1ccc2c(c1)OCO2)C(F)(F)F`, the displacement is -7%. As to `CCOC(=O)C1=C(C)NC(=O)CC1c1ccccc1I` (stereo not drawn), the displacement was -10.7%.

As for `Cc1ccc(C(=O)N/C(=C\c2cccc([N+](=O)[O-])c2)C(=O)NCc2ccncc2)cc1`, the displacement is 9.4%. As for `O=C(/C=C/c1ccccc1Cl)Nc1ccc(Cl)cn1`, the displacement worked out at 5.9%. To `O=C(/C=C/c1cccc(C(F)(F)F)c1)Nc1cccc(C(F)(F)F)c1` belongs 12.8%; to `CCn1c2ccccc2c2cc(/C=N\NC(=O)c3cccc(C)c3)ccc21`, 23.8%; to `O=C(O)c1cc(NC(=O)c2ccco2)cc(C(=O)O)c1`, 9%. The result for `CN(C)/C=C1/CCc2c([nH]c3ccccc23)C1=O` reads 9.1%; that for `Cc1cccc(C)c1OCC(O)CN1CCC(C)CC1` (stereo not drawn), 15.9%. To `CC(Nc1n[nH]c(=O)[nH]c1=O)C(=O)N/N=C/c1ccccc1Br` (stereo not drawn) belongs -12.3%; to `Cc1cc(C(=O)Nc2ccc3ncccc3c2)ccc1[N+](=O)[O-]`, -4.1%; to `Cc1ccc(OCCCCN2CCCCC2)c(Cl)c1`, 3.8%. For `O=C(O)CCC(=O)N1N=C(c2cccs2)CC1c1ccccc1Cl` (stereo not drawn), the displacement is -8.4%. In the case of `CCc1nn2c(C)c(C)c(C)nc2c1C`, the displacement was -2.3%. To `O=c1n(-c2ccccc2)c(=O)n2n1C1c3ccccc3C2c2ccccc21` belongs 3.9%; to `CCN(CC)Cc1cc2ccccc2c2c1COC2`, -17.2%. To `O=C1NC(=S)S/C1=C/c1ccc(OCc2cccc(C(=O)O)c2)cc1` belongs 14.1%; to `NCCCNc1ccc(C(F)(F)F)cc1[N+](=O)[O-]`, -12.5%; to `COc1ccccc1N(CC(=O)N1CCCC1)S(=O)(=O)c1ccccc1`, 1.7%.

`COc1cccc2cc(-c3csc(Nc4ccccc4C)n3)c(=O)oc12`: the displacement stood at 13.8%. To `CC1=CC(C)(C)N(Cc2ccc([N+](=O)[O-])cc2)c2ccc(C)cc21` belongs 1.8%; to `Cc1cc(C(=O)N/N=C/c2c(C)[nH]c3ccccc23)n[nH]1`, -7.4%.

Turning to `O=C(CSc1nsc(SCC(=O)N2CCCCC2)n1)N1CCCCC1`, the displacement is 1.1%. The result for `COc1ccc(CC(=O)Nc2sc3c(c2C(=O)OC(C)C)CCCCC3)cc1` reads -0.2%; that for `Oc1ccc(Cl)cc1/C=N/Nc1nc2ccccc2s1`, -6%; that for `Cc1cccc(C(=O)Nc2ccc(NC(=O)Cc3ccccc3)cc2)c1`, 6.6%. For the compound `COC(=O)c1ccc(N2C(=O)CC(SC(=NCCc3ccccc3)Nc3ccccc3)C2=O)cc1` (stereo not drawn), the displacement is -9.4%.

`Cc1cc(/C=C2/SC(=O)NC2=O)c(-c2ccccc2)n1-c1ccccc1`: the displacement was -9.6%. With `CC1CCCN(C(=O)Nc2ccc(F)cc2)C1` (stereo not drawn), the displacement was -2.3%. To `Cc1ccc(N2C(=O)CSC23C(=O)Nc2ccccc23)cc1Cl` (stereo not drawn) belongs 15.2%.

Regarding `COc1ccc(OCC(=O)N2c3ccccc3C(Nc3ccccc3)CC2C)cc1` (stereo not drawn), the displacement amounted to 5.1%. The result for `COc1ccc(C2C=C(Nc3ccccc3)C(=O)N2c2ccccc2)c(OC)c1` (stereo not drawn) reads 7.9%; that for `O=[N+]([O-])c1ccc(C(=S)N2CCCCC2)cc1`, -9.7%; that for `CCC(C)OC(=O)C1=C(C)NC(=O)NC1c1ccccc1` (stereo not drawn), 5.1%. To `COc1ccc(/C=C2\SC(=O)NC2=S)cc1` belongs 67.8%; to `COc1cccc(N2C(=O)C3C4C=CC(C4)C3C2=O)c1` (stereo not drawn), -3.8%; to `CC(=O)CC(=O)Nc1ccc(Cl)c(Cl)c1`, 3%. The result for `O=C(N/N=C/c1ccc2c(c1)OCO2)c1ccc(CO)nc1` reads 5.9%.

Turning to `CC(C)c1ccc(/C=C2\SC(=Nc3ccc(F)cc3)NC2=O)cc1`, the displacement stood at 11.9%. The result for `COc1ccc(/C=C2/C=C(c3ccccc3)OC2=O)c(OC)c1` reads -30%; that for `O=C1C2CCCC1C(c1ccc3c(c1)OCO3)NC2c1ccc2c(c1)OCO2` (stereo not drawn), 11.9%. As to `Cc1cc(NC(=O)c2ccc(C(C)(C)C)cc2)ccc1NC(=O)c1ccco1`, the displacement was -5.2%. Regarding `Cc1ccc(OCC(=O)NC2CC(C)(C)NC(C)(C)C2)c(Br)c1`, the displacement was -0.3%. On to `Cc1cc(O)c(C(C)C)cc1NC(=O)c1cc(C(C)(C)C)oc1C`, for which the displacement was -6.7%. To `Cc1sc(NC(=O)/C=C/c2ccccc2)c(C(N)=O)c1C` belongs 7.9%; to `COc1ccc(N(CC(=O)NCc2ccccc2)S(=O)(=O)c2ccc(C)cc2)cc1OC`, -7.7%; to `Cn1c(Sc2nc3ccc([N+](=O)[O-])cc3s2)nc2sc3c(c2c1=O)CCCC3`, -10.3%. To `CNc1nc(C)nc(-n2nc(C)cc2C)n1` belongs -13.5%; to `CC12C(=O)C(C(c3ccccc3)NC1c1ccccc1)C(c1ccccc1)NC2c1ccccc1` (stereo not drawn), 11%; to `C=CCNC(=O)CN(c1ccccc1OC)S(=O)(=O)c1ccccc1`, 3.3%.

Turning to `O=C(NCC1CCN(C(=O)c2cccc(F)c2)CC1)c1cccc(F)c1`, the displacement was 7.8%. On to `Cc1nc2cc(-c3ccccc3)nn2c(C)c1C`, for which the displacement was -6.7%. The result for `COc1ccc(NC(=O)CN(c2cccc(Cl)c2)S(C)(=O)=O)c(OC)c1` reads -0.9%; that for `CCN(CC)CCCNC(=O)c1cccc(OC)c1`, -4.2%.

Regarding `COc1ccc(C2CC(=O)C3=C(C2)Nc2ccccc2NC3c2ccc(Br)s2)cc1` (stereo not drawn), the displacement was -2.2%. To `O=C(c1ccc(F)cc1)N1CCN(C2CCC(c3ccccc3)CC2)CC1` (stereo not drawn) belongs 9.5%; to `N#CCOc1ccccc1/C=N/c1sc2c(c1C#N)CCCC2`, -19.9%; to `Cc1ccc2[nH]c(C)c(CN3CCCC3)c(=O)c2c1`, 11%.

As for `COc1ccc(/C=C2/C(=O)NC(=O)N(c3ccc(C(C)C)cc3)C2=O)cc1O`, the displacement is -28.6%. Regarding `CCc1ccc(CN2CCN(C(=O)c3ccc(F)cc3)CC2)cc1`, the displacement came to 13.1%. To `CN(C)c1ccc(/C=N/Nc2nc(-c3cc4ccccc4oc3=O)cs2)cc1` belongs 10.4%; to `COc1ccccc1/C=C/C=N\N1CCN(c2ccc(Cl)cc2)CC1`, 2.2%; to `COc1ccccc1OCC(=O)Nc1cccc(C(C)=O)c1`, -5.2%. On to `Cc1ccc(N2C(=O)/C(=C/c3ccccc3C)C(=O)NC2=S)cc1`, for which the displacement was determined as 7%. To `CSc1ccc(S(=O)(=O)N(CC(=O)Nc2ccc(Cl)cc2)c2ccc(C)cc2)cc1` belongs 11.6%; to `Cc1ccc(C)c(N(CC(=O)O)S(=O)(=O)c2ccccc2)c1`, -18.2%. For the compound `CCOC(=O)c1c(NC(=O)CCc2ccccc2)sc(C(=O)Nc2ccccc2OC)c1C`, the displacement is -6.4%. `O=C1NC(=O)N(c2ccccc2)C(=O)/C1=C\c1ccc(OCCOc2ccccc2)cc1`: the displacement is 7%. To `O=C(NCCc1ccc(F)cc1)C(=O)Nc1cccc(C(F)(F)F)c1` belongs -6.3%; to `Cc1c(Cl)cccc1NC(=O)C1C(c2ccccc2)=C1c1ccccc1`, -9.6%; to `COc1ccccc1NC(=O)C(=O)NCCO`, 14%.

As to `COc1cc(C(=O)Nc2ccc(NC(C)=O)cc2)c([N+](=O)[O-])cc1OC`, the displacement was 5.8%.

In the case of `O=C(Nc1c(C(=O)NCc2ccccc2)cnn1-c1ccccc1)c1cccc(F)c1`, the displacement was -1.5%. `Cc1ccc(C(=O)Oc2ccccc2C(=S)N2CCOCC2)cc1`: the displacement is 9.1%.

In the case of `CC(C)(C)C1(C)OC(O)(C(F)(F)C(F)F)CC1=O` (stereo not drawn), the displacement is -9.2%. The result for `Cc1c(NC(=O)/C=C\C(=O)O)c(=O)n(-c2ccccc2)n1C` reads -3.5%; that for `COc1ccc(S(=O)(=O)N2CCN(C3CCCCC3)CC2)cc1`, 3.8%. The result for `O=C(Cc1ccc(Cl)cc1)Nc1cccc([N+](=O)[O-])c1` reads 6.5%; that for `COc1ccc2c(C)cc(=O)oc2c1C`, 2.7%.

As for `Cc1onc(C(=O)N2CCC(C(N)=O)CC2)c1-c1ccccc1Cl`, the displacement is -5%. The result for `COc1ccc(C(C)NC(=O)CCc2ccccc2)cc1` (stereo not drawn) reads -3.5%; that for `O=C(Cc1ccccc1)NCC1CCCO1` (stereo not drawn), -9.3%; that for `O=C(Nc1nc2ccccc2n1Cc1ccccc1Cl)c1ccc(Cl)cc1`, 9.4%. To `COc1ccccc1C(=O)Nc1nnc(-c2ccco2)s1` belongs -2.8%. The result for `CCN(CC)/C(=C\C(=O)c1ccc(C)cc1)c1ccccc1` reads -14.8%. Turning to `Cc1cc(C)c(/C=c2\sc3nc4cc(Br)cnc4n3c2=O)cc1C`, the displacement was 0.7%. As for `COc1ccc(C2Nc3ccccc3C(=O)N2c2ccccc2)cc1Cn1nc(C)c(Cl)c1C` (stereo not drawn), the displacement was -2.4%. To `CCOC(=O)C1=C(c2ccccc2)N=C2SCC(=O)N2C1c1cccc(OC)c1OC` (stereo not drawn) belongs 3.9%; to `Clc1ccccc1-c1nc(Cc2ccccc2)no1`, -2.2%; to `Cc1ccc(C(=O)COC(=O)c2ccccc2)cc1`, -2.8%. The result for `N/C(=N\OC(=O)c1ccc2ccccc2c1)c1ccccn1` reads -1%; that for `CC(=O)N(c1ccccc1)C1CC(C)Nc2ccccc21` (stereo not drawn), -3.6%; that for `O=Cc1ccc(-c2ccc(Cl)c(C(=O)O)c2)o1`, 5.2%. With `Cc1ccc(C2/C(=C(/O)c3ccccc3)C(=O)C(=O)N2CC2CCCO2)cc1` (stereo not drawn), the displacement is -15.1%. For `COc1cc(/C=C2\SC(=NCc3ccccc3)N(Cc3ccccc3)C2=O)cc(Br)c1O`, the displacement is -5.7%.

Regarding `O=C(O)CSCC(=O)c1ccccc1`, the displacement was -0.2%.

For the compound `O=C(/C=C/c1cccs1)N1CCN(c2ccccc2)CC1`, the displacement was -16.4%.

Take `O=C(c1ccc(C#CC2(O)CCCCC2)cc1)N1CCN(c2ccccc2Cl)CC1`: the displacement was -13.4%.

In the case of `CCn1c(C(O)c2ccc(OCc3ccccc3)c(OC)c2)nc2ccccc21` (stereo not drawn), the displacement is 2.7%. As to `O=[N+]([O-])c1ccc(N/N=C\c2ccc(N3CCOCC3)o2)nc1`, the displacement was -18.1%. To `Cc1ccc(S(=O)(=O)c2c(N)n(CCO)c3nc4ccccc4nc23)cc1` belongs 12.6%. To `COCCOC(=O)c1ccc(NC(=O)COc2ccc(Cl)cc2)cc1` belongs -4.5%. As to `CC1=NN(c2ccccc2)C(=O)/C1=C\c1c(O)n(-c2ccc(F)cc2)[nH]c1=O`, the displacement stood at 0%. To `O=C1c2cccc3cccc(c23)C(=O)N1CCN1CCN(S(=O)(=O)c2cccc3cccnc23)CC1` belongs -2.6%; to `Cc1ccc(C(O)c2nc3ccccc3n2C)cc1` (stereo not drawn), -11.1%.

As to `COc1ccc(N(CC(=O)N2CCOCC2)S(=O)(=O)c2ccccc2)cc1`, the displacement was 24%.
